Data: article PMC3988004
These are yes or no findings as the source states them, for the method shown. Binding seen in cells or lysates may run through a third protein. Some results given as binding are weak or reduced against the parent protein; the word gives no strength. For some of these results: Where a sequence is shown, tags or fusion partners need not be part of it. Values belong to the molecule of their own block, whether it stands above or below them.

Protein sequences, listed by entry. Tags and fused reporters are not part of them.
UniProt Q9WTL8: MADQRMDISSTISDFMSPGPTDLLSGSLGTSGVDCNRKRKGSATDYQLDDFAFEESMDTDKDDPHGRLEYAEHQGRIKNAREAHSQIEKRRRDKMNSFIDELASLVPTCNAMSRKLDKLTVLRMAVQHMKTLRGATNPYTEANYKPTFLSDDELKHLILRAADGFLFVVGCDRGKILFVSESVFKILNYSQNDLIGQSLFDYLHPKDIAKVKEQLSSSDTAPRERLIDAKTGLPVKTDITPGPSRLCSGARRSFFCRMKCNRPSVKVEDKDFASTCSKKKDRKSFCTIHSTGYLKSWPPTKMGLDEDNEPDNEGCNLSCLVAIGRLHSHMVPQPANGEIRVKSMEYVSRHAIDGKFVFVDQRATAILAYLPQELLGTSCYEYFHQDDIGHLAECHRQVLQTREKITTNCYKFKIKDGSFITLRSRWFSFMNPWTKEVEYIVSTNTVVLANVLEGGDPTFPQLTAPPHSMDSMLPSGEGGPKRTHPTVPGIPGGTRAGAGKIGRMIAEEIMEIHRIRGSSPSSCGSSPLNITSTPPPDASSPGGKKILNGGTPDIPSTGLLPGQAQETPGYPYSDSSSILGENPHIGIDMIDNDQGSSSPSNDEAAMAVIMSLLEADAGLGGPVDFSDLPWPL
UniProt O35185: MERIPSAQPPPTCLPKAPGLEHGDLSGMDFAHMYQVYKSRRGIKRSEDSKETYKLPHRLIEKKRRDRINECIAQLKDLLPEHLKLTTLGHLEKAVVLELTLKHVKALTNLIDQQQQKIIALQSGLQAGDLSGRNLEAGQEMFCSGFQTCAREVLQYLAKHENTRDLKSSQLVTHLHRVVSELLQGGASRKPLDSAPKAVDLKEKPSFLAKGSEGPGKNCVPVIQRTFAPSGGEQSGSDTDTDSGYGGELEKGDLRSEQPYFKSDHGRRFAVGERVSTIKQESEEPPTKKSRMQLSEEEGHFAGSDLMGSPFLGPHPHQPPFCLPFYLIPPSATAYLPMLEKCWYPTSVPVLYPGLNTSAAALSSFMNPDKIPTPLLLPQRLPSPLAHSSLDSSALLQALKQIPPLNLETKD
UniProt Q99PV5: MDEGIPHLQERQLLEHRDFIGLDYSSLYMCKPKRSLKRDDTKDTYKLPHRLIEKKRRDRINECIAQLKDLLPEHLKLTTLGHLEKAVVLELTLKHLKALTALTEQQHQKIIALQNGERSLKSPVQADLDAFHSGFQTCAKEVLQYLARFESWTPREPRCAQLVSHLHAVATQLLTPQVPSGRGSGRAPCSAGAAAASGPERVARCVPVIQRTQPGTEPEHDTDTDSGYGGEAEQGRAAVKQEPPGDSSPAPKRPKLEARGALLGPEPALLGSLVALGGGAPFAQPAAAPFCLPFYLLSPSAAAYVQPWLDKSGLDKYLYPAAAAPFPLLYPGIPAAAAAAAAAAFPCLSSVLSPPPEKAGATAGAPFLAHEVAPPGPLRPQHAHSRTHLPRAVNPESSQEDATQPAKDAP
UniProt O09106: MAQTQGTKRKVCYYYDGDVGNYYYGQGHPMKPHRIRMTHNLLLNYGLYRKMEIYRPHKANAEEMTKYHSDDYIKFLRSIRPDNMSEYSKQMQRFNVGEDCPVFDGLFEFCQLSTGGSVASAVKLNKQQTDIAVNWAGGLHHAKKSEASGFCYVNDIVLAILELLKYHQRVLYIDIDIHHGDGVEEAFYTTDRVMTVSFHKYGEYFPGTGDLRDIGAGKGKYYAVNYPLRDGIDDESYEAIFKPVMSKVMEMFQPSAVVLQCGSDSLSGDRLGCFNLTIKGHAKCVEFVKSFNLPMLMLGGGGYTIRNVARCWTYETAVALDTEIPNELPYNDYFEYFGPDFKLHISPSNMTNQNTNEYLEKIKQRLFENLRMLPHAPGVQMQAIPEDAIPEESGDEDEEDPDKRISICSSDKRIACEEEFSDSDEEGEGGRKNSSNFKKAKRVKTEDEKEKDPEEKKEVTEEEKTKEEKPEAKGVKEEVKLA
UniProt O35973: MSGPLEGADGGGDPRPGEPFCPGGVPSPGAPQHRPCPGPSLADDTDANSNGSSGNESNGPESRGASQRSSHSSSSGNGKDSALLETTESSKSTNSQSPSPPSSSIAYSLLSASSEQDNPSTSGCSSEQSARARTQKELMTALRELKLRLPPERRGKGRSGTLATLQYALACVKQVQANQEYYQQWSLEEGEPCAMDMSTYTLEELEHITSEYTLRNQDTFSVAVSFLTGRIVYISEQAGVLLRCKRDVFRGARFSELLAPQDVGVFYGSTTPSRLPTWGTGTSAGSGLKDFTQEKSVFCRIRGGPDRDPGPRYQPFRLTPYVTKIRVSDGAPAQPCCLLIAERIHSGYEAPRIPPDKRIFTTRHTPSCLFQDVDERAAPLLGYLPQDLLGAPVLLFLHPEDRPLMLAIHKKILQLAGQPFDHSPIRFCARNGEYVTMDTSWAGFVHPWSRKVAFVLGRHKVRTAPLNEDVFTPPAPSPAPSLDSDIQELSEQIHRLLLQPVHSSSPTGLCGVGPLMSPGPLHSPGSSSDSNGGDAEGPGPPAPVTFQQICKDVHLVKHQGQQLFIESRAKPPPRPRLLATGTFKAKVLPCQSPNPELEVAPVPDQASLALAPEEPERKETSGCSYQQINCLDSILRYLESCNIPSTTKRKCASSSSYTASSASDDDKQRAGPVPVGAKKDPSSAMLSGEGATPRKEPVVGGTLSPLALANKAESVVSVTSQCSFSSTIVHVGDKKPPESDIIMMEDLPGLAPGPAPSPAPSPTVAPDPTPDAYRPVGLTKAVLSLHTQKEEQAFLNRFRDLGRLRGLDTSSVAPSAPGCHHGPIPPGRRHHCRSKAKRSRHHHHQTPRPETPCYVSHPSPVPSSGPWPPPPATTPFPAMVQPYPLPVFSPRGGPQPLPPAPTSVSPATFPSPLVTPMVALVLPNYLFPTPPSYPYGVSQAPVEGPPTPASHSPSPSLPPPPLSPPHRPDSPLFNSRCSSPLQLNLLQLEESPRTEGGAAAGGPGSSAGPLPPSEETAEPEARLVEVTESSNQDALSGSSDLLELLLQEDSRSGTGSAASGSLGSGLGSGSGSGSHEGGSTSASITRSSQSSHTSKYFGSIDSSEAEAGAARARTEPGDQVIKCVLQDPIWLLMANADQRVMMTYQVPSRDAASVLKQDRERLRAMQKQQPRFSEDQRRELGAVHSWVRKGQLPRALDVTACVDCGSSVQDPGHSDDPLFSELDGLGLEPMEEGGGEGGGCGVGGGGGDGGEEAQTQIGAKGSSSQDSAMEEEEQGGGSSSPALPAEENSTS
UniProt O54943: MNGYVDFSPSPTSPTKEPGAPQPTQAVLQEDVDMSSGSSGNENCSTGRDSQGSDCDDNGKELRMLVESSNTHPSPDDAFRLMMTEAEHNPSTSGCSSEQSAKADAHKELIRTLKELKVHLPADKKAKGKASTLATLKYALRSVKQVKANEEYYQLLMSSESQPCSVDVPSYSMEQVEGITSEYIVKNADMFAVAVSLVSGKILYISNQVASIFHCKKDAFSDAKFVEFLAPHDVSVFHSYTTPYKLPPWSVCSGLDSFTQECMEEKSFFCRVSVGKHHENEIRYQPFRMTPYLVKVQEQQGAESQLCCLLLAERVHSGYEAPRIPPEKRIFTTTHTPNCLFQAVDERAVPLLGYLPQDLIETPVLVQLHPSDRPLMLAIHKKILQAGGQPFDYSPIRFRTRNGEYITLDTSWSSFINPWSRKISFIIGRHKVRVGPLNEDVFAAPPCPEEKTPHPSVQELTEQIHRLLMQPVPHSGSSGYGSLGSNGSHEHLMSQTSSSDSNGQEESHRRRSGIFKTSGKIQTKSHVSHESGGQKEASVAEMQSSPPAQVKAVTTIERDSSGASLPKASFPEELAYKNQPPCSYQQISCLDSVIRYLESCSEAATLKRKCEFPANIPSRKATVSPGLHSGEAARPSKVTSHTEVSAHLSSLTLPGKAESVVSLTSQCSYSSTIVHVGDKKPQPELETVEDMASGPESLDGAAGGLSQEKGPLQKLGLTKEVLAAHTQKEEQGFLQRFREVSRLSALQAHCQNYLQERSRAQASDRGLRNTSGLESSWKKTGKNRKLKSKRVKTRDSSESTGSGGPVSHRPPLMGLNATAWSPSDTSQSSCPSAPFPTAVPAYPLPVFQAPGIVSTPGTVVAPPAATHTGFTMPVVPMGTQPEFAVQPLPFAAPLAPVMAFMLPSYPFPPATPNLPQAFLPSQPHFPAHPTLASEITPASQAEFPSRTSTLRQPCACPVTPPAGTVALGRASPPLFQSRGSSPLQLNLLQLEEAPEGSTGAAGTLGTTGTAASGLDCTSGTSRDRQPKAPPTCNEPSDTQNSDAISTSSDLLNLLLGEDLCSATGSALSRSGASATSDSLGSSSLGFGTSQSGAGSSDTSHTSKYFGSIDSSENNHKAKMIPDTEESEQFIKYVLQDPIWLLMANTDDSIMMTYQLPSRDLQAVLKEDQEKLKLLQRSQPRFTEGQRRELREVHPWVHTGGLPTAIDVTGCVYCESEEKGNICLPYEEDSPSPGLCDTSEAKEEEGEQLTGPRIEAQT
UniProt P06537: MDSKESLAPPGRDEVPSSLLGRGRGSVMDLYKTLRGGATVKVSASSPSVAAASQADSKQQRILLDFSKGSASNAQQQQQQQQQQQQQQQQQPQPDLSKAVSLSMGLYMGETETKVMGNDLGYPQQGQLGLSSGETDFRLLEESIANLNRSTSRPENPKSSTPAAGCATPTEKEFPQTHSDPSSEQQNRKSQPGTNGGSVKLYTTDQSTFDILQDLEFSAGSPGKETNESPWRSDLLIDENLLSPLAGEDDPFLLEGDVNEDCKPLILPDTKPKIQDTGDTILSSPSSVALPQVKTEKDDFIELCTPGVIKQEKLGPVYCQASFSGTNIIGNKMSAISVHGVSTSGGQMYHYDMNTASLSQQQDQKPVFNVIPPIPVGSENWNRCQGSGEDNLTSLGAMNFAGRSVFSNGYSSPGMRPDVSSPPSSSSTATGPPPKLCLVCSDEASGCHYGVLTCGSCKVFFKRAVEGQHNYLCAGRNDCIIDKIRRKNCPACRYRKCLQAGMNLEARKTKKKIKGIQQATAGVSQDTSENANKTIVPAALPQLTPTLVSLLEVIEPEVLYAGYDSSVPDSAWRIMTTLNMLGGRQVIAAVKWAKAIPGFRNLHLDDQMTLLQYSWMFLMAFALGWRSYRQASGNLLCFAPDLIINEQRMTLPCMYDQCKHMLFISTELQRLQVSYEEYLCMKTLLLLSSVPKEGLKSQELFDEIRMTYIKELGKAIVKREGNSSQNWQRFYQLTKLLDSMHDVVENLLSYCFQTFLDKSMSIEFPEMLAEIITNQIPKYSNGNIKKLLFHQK

Experiments:
[1] = target: T1, CHRONO (endogenous, mouse liver) (mouse (endogenous in mouse liver)) (UniProt Q3TQ03); assay: co-IP; endogenous proteins; IP with the CHRONO antibody from mouse liver lysate, blot for BMAL1; Chrono-deficient mouse liver as control
T1 sequence: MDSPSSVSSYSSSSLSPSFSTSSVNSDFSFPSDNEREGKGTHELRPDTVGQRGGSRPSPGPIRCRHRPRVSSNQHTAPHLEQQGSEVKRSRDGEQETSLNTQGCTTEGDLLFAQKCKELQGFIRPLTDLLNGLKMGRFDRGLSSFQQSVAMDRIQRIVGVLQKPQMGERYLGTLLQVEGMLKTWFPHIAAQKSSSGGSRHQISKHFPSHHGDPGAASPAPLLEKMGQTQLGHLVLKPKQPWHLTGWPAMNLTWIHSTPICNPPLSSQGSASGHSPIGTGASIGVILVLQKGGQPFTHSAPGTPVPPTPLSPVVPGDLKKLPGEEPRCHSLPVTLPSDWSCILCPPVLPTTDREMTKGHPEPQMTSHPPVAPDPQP

[2] = target: T2, CHRONO (tagged, expressed in COS7 cells) (mouse) (UniProt Q3TQ03); assay: co-IP; COS7 cells transfected with tagged proteins, lysed in TNE buffer with protease inhibitor; precleared with Dynabeads Protein G; IP with anti-HA, anti-Flag or anti-c-Myc antibodies; Western blot with anti-tag antibodies
T2 sequence: T1 sequence

[3] = target: T3, CHRONO–HA (mouse) (UniProt Q3TQ03); assay: as above
T3 sequence: T1 sequence

[4] = target: T1, CHRONO (endogenous, mouse liver) (mouse (endogenous in mouse liver)); assay: co-IP; endogenous proteins; IP-Western from WT mouse liver at ZT 6 and 12

binding [1]: binds
Molecule: BMAL1 (endogenous, mouse liver) (from UniProt Q9WTL8 1-632)

binding [2]: binds
Molecule: BMAL1 (tagged, expressed in COS7 cells) (from UniProt Q9WTL8 1-632)

binding [2]: no binding
Molecule: DEC1 (tagged, expressed in COS7 cells) (from UniProt O35185 1-411)

binding [2]: binds
Molecule: DEC2 (tagged, expressed in COS7 cells) (from UniProt Q99PV5 1-410)

binding [3]: binds
Molecule: HDAC1–FLAG (from UniProt O09106 1-482) (enzyme)

binding [2]: no binding
Molecule: PER1 (tagged, expressed in COS7 cells) (from UniProt O35973 1-1291)

binding [2]: binds
Molecule: PER2 (tagged, expressed in COS7 cells) (from UniProt O54943 1-1257)

binding [4]: binds
Molecule: glucocorticoid receptor (endogenous, mouse liver) (from UniProt P06537 1-792)

binding [2]: no binding
B1: CRY1 (tagged, expressed in COS7 cells) (protein, UniProt P97784 1-606)
chain: MGVNAVHWFRKGLRLHDNPALKECIQGADTIRCVYILDPWFAGSSNVGINRWRFLLQCLEDLDANLRKLNSRLFVIRGQPADVFPRLFKEWNITKLSIEYDSEPFGKERDAAIKKLATEAGVEVIVRISHTLYDLDKIIELNGGQPPLTYKRFQTLVSKMEPLEMPADTITSDVIGKCMTPLSDDHDEKYGVPSLEELGFDTDGLSSAVWPGGETEALTRLERHLERKAWVANFERPRMNANSLLASPTGLSPYLRFGCLSCRLFYFKLTDLYKKVKKNSSPPLSLYGQLLWREFFYTAATNNPRFDKMEGNPICVQIPWDKNPEALAKWAEGRTGFPWIDAIMTQLRQEGWIHHLARHAVACFLTRGDLWISWEEGMKVFEELLLDADWSINAGSWMWLSCSSFFQQFFHCYCPVGFGRRTDPNGDYIRRYLPVLRGFPAKYIYDPWNAPEGIQKVAKCLIGVNYPKPMVNHAEASRLNIERMKQIYQQLSRYRGLGLLASVPSNSNGNGGLMGYAPGENVPSCSSSGNGGLMGYAPGENVPSCSGGNCSQGSGILHYAHGDSQQTHSLKQGRSSAGTGLSSGKRPSQEEDAQSVGPKVQRQSSN

binding [2]: binds
B2: CRY2 (tagged, expressed in COS7 cells) (protein, UniProt Q9R194 1-592)
chain: MAAAAVVAATVPAQSMGADGASSVHWFRKGLRLHDNPALLAAVRGARCVRCVYILDPWFAASSSVGINRWRFLLQSLEDLDTSLRKLNSRLFVVRGQPADVFPRLFKEWGVTRLTFEYDSEPFGKERDAAIMKMAKEAGVEVVTENSHTLYDLDRIIELNGQKPPLTYKRFQALISRMELPKKPAVAVSSQQMESCRAEIQENHDDTYGVPSLEELGFPTEGLGPAVWQGGETEALARLDKHLERKAWVANYERPRMNANSLLASPTGLSPYLRFGCLSCRLFYYRLWDLYKKVKRNSTPPLSLFGQLLWREFFYTAATNNPRFDRMEGNPICIQIPWDRNPEALAKWAEGKTGFPWIDAIMTQLRQEGWIHHLARHAVACFLTRGDLWVSWESGVRVFDELLLDADFSVNAGSWMWLSCSAFFQQFFHCYCPVGFGRRTDPSGDYIRRYLPKLKGFPSRYIYEPWNAPESVQKAAKCIIGVDYPRPIVNHAETSRLNIERMKQIYQQLSRYRGLCLLASVPSCVEDLSHPVAEPGSSQAGSISNTGPRALSSGPASPKRKLEAAEEPPGEELTKRARVTEMPTQEPASKDS
